The supplement of paper PMC3334620
Over roughly 33,000 sequences, “E-score (-0.5 to 0.5)” has its median near -0.016; the highest 2% begin near 0.32. The list shows a part of the results.

Each sequence was assayed against T1, Stp1 (UniProt B3LFK1) (assay: PBM E-score (8-mer binding enrichment) (E-score (-0.5 to 0.5)); higher = stronger / more preferred TF binding; most listed sequences are background and not binding sites). Conditions: protein concentration: 200 nM; construct: GST-full length.
T1 sequence: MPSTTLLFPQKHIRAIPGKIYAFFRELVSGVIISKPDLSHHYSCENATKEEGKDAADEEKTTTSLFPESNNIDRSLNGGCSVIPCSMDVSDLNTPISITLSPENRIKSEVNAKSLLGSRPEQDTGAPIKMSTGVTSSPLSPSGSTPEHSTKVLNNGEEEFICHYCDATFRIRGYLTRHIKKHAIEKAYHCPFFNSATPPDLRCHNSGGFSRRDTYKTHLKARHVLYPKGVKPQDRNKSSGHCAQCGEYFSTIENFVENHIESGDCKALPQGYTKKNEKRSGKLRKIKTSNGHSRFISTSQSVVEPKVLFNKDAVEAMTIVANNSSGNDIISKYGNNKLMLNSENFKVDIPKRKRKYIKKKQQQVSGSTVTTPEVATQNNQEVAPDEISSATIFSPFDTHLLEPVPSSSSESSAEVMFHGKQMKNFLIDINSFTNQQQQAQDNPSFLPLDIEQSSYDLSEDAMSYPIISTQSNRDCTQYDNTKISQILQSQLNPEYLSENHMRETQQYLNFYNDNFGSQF
How it was run: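 Masliner-normalised scans of fluorescent anti-GST signal were the basis for scoring. That signal came from GST-tagged yeast transcription factors applied at about 100-200 nM to double-stranded universal all-10-mer Agilent arrays on fresh or once-stripped slides. Each ungapped eight-base word, pooled with its reverse complement, received an E-score from the Universal PBM Analysis Suite.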

Sequence | PBM E-score
ACTCATAG | -0.0564
CAAGCGAC | -0.128
CCTCGTGC | 0.131
GATGAACA | -0.00822
CTTGTTTC | 0.0834
ATCTTCAT | -0.0473
CATCTTTA | 0.223
AAAATTAT | 0.208
ACATGGAT | -0.0555
AACTGCGT | 0.00114
ATAGTCCC | -0.271
AACGACAC | -0.0363
ATCCGGAA | -0.0288
ACCCTCTA | -0.261
CGTTGTGA | 0.173
GTAGGAAC | 0.0214
GAATACCA | 0.0128
AAAGGGGC | -0.108
AAGCCGGG | -0.211
TCCCTACA | -0.129
CTGCCTCC | -0.063
CTCAGGGC | 0.00893
GAAACGCA | 0.145
TTAACCAA | 0.0665
CCTCTCAC | -0.0778

Sequence | PBM E-score
GACTATGA | -0.251
CGGCATAA | 0.358
CCCAAGTC | -0.207
CACAGAAA | -0.00471
CTTGGTTC | 0.197
AGTTCGTA | 0.102
TGCGTCCA | -0.0565
ACGTCGTC | -0.0849
CACAATAC | -0.13
AGCCAAAA | -0.0215
ACCTTGGC | -0.262
CAAACATG | -0.00926
CGAGTGGC | 0.167
ACATATCA | 0.186
CTGGAAAG | -0.15
CTATGGAA | 0.00264
CTTCCGCA | -0.107
GAATCCTA | 0.0481
ATGCATCC | -0.231
CTTGGTGC | -0.0166
ATGCATAA | 0.0467
CCTGCACA | -0.217
CCCGGTAC | -0.346
ACCCTAAG | -0.186
CATTCATA | 0.186

Sequence | PBM E-score
AACGGCAA | 0.432
CGCGTAAA | 0.213
GCGACCAA | 0.0541
ATGTGTTA | 0.148
CTCCCCAG | -0.314
TAGGTGAA | -0.103
AAAGCCTA | 0.038
TCTCTTCA | 0.0652
AGTCTCGC | -0.257
CTAGGGCA | -0.0923
GGGCCGTA | 0.369
AGGAGATA | -0.104
ACGCGGAG | 0.111
CGGTCCCC | -0.295
GACCAGAC | -0.173
AACTCAGG | -0.273
CGCTGTAG | -0.0691
ATAGCAGG | 2e-05
CGTCTTAG | 0.0086
TGACGTAA | -0.035
AGGATTTG | -0.0786
CGCCTTGC | 0.35
CCGCTCTC | -0.0569
ACATGCCA | 0.124
CTCGTCAG | -0.0139

Sequence | PBM E-score
GCCTCTGA | -0.183
AAGAGTCC | -0.301
ATTTAGGA | 0.0408
CAGGCACC | -0.107
ATAATGAA | 0.261
AATAATTC | 0.0962
ATCCCTGC | -0.0959
AAATTAGG | 0.178
AGGACTAC | -0.337
ACCCAGAA | 0.0346
CCAGCTGA | 0.0196
CATAAAAC | 0.0722
AGGAAGGA | -0.229
CGGGTTCC | -0.148
AACTGAAC | 0.0793
AACCCTTA | 0.0145
TACAGCAA | 0.017
ATTCGACA | -0.0353
AGCCGCGG | 0.376
AGGACGGC | 0.324
ACACCTTC | 0.0164
GCTAGGCA | -0.00599
GGGGGAGA | -0.265
CCACTCAA | 0.189
CCGCCTGC | 0.16

Sequence | PBM E-score
CTACCACA | -0.131
CATGGCGA | -0.0243
ATGTTGGG | -0.106
ATATGACA | 0.0546
TCGAGTCA | -0.0858
GATATTGA | 0.194
TAGAAACA | 0.117
AGGTACAG | -0.234
AGTGGCTC | 0.0246
CATCTGTA | -0.00399
AAGAACTA | 0.00555
CACCAACA | -0.105
TCACAACA | 0.187
GAATTTAA | 0.0413
GTCGCCAA | -0.0493
AAACGGGG | 0.149
ATACACAA | 0.0923
CCGGCAGC | -0.063
AGGCTCCG | 0.291
ATCGCAGC | 0.0854
GCTGTAAA | 0.147
CTACGCAG | 0.113
CGTCTGGC | 0.0155
AAACGGGT | 0.188
GTAAGGGA | -0.0448

Sequence | PBM E-score
GCAAACCC | -0.23
AACGTTGC | 0.0459
AGCAGCGA | 0.0195
ACGACATA | -0.121
CTTAATCA | 0.0291
AAGCTTCA | -0.164
ACAATACT | 0.0888
CTAGGACA | -0.109
ACACGGAT | 0.315
CGAGTGTA | -0.0856
CGCGAGTC | -0.122
CACCGCCC | -0.0765
CTTGCTGA | -0.163
CCTATAGG | -0.197
CCGACTTC | -0.238
ACGGGGTA | -0.144
ACTTCGTC | 0.0206
AGTTCCGA | -0.0834
GCATTTGA | 0.105
AGGACCTC | -0.248
GGTTGTCA | -0.146
AAGACTCT | -0.0588
TGCATAAA | 0.152
AAGCGACT | -0.0822
GCTCAACA | 0.00726

Sequence | PBM E-score
ATGACAAC | 0.171
GAAACGTA | 0.0132
CCGAGGAC | -0.19
GAACAGCA | -0.0185
ACAGTCGT | -0.0468
GTGGCGAA | 0.167
AAAATTCC | 0.14
GTTTCCCA | 0.0404
GATGCGAC | -0.0969
CACGAAGC | 0.0746
ACTTGCCT | 0.00572
GGAACAAC | 0.0872
CCGCTCAC | -0.01
GCTTACAC | -0.0587
ACGTTGGG | -0.132
ATCCTGCC | -0.0501
ACGGTATA | 0.0648
GAGGGAAC | -0.0721
GAGGTAAA | 0.0679
AACGTGTC | -0.177
GGAGAGCC | -0.00695
TCAGGAGA | 0.0156
